Test results taken from paper PMC5062570 (Nature Communications, 2016).

Columns and labels:
[1] = target: PF-7802-labelled proteins in ARPE-19 cells (Homo sapiens, UniProt O60716); settings: protein CTNND1 Catenin delta-1 (O60716)
[2] = target: PF-7802-labelled proteins in ARPE-19 cells (Homo sapiens, UniProt P06756); settings: protein ITGAV Integrin alpha-V (P06756); one column per replicate
[3] = target: PF-7802-labelled proteins in ARPE-19 cells (Homo sapiens, UniProt P13667); settings: protein PDIA4 Protein disulfide-isomerase A4 (P13667); replicates in separate columns
[4] = target: PF-7802-labelled proteins in ARPE-19 cells (Homo sapiens, UniProt P14866); settings: protein HNRNPL Heterogeneous nuclear ribonucleoprotein L (P14866); one column per replicate
[5] = target: PF-7802-labelled proteins in ARPE-19 cells (Homo sapiens, UniProt P17066); settings: for Median SILAC Ratio (Heavy/Light): protein HSPA6 Heat shock 70 kDa protein 6 (P17066), one column per replicate
[6] = target: PF-7802-labelled proteins in ARPE-19 cells (Homo sapiens, UniProt P22695); settings: UQCRC2 Cytochrome b-c1 complex subunit 2, mitochondrial (P22695)
[7] = target: T1, PF-7802-labelled proteins in ARPE-19 cells (Homo sapiens, UniProt P27348); settings: for Median SILAC Ratio (Heavy/Light): protein YWHAQ 14-3-3 protein theta (P27348)
T1 sequence (P27348 1-245): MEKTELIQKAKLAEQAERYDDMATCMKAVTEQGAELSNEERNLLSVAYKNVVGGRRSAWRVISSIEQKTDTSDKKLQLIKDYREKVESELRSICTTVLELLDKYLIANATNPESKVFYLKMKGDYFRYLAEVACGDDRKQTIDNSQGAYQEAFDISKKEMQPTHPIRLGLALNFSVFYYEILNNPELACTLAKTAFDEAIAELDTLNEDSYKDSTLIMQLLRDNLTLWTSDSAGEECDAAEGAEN

[8] = target: T2, PF-7802-labelled proteins in ARPE-19 cells (Homo sapiens, UniProt P52272); settings: for Median SILAC Ratio (Heavy/Light): protein HNRNPM Heterogeneous nuclear ribonucleoprotein M (P52272), one column per replicate
T2 sequence (P52272 1-730): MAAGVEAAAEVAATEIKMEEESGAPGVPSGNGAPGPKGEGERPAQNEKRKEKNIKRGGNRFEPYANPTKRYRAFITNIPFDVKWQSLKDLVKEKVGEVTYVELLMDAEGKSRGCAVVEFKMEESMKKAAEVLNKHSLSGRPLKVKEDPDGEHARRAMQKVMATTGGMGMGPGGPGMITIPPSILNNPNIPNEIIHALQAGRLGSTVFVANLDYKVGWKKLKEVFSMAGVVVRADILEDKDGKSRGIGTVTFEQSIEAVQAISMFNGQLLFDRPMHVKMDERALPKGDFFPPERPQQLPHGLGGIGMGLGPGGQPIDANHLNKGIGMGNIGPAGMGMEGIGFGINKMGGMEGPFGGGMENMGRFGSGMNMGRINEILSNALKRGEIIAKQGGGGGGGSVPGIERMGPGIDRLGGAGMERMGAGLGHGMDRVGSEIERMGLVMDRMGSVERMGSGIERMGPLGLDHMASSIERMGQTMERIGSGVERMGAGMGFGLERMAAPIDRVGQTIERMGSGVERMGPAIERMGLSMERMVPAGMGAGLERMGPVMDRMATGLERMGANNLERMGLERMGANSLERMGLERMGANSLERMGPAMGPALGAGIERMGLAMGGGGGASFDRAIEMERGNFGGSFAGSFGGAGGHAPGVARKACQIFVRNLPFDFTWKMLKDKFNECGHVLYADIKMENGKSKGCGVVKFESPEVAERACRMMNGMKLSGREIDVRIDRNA

[9] = target: PF-7802-labelled proteins in ARPE-19 cells (Homo sapiens, UniProt P60900); settings: protein PSMA6 Proteasome subunit alpha type-6, P60900
[10] = target: PF-7802-labelled proteins in ARPE-19 cells (Homo sapiens, UniProt P62266); settings: protein RPS23 40S ribosomal protein S23, P62266
[11] = target: PF-7802-labelled proteins in ARPE-19 cells (Homo sapiens, UniProt P62917); settings: protein RPL8 60S ribosomal protein L8, P62917
[12] = target: PF-7802-labelled proteins in ARPE-19 cells (Homo sapiens, UniProt P68371); settings: for Median SILAC Ratio (Heavy/Light): TUBB4B Tubulin beta-4B chain (P68371)
[13] = target: T3, PF-7802-labelled proteins in ARPE-19 cells (Homo sapiens, UniProt Q15084); settings: for Median SILAC Ratio (Heavy/Light): protein PDIA6 Protein disulfide-isomerase A6 (Q15084), replicates in separate columns
T3 sequence (Q15084 20-440): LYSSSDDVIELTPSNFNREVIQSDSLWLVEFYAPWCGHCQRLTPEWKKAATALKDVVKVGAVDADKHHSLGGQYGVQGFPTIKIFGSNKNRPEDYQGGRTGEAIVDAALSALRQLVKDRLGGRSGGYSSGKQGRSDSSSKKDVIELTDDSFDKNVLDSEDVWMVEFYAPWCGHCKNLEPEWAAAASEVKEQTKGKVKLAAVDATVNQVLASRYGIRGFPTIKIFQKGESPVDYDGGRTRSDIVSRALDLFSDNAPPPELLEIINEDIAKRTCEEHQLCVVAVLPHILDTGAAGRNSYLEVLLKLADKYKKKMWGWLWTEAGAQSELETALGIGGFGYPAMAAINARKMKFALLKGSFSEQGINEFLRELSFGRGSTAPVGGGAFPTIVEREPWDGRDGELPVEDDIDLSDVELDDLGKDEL

[14] = target: PF-7802-labelled proteins in ARPE-19 cells (Homo sapiens, UniProt Q9Y265); settings: protein RUVBL1 RuvB-like 1, Q9Y265
[15] = target: PF-7802-labelled proteins in ARPE-19 cells (Homo sapiens, UniProt Q9Y490); settings: TLN1 Talin-1 (Q9Y490)
UniProt Q9Y490, sequence (Q9Y490 whole entry): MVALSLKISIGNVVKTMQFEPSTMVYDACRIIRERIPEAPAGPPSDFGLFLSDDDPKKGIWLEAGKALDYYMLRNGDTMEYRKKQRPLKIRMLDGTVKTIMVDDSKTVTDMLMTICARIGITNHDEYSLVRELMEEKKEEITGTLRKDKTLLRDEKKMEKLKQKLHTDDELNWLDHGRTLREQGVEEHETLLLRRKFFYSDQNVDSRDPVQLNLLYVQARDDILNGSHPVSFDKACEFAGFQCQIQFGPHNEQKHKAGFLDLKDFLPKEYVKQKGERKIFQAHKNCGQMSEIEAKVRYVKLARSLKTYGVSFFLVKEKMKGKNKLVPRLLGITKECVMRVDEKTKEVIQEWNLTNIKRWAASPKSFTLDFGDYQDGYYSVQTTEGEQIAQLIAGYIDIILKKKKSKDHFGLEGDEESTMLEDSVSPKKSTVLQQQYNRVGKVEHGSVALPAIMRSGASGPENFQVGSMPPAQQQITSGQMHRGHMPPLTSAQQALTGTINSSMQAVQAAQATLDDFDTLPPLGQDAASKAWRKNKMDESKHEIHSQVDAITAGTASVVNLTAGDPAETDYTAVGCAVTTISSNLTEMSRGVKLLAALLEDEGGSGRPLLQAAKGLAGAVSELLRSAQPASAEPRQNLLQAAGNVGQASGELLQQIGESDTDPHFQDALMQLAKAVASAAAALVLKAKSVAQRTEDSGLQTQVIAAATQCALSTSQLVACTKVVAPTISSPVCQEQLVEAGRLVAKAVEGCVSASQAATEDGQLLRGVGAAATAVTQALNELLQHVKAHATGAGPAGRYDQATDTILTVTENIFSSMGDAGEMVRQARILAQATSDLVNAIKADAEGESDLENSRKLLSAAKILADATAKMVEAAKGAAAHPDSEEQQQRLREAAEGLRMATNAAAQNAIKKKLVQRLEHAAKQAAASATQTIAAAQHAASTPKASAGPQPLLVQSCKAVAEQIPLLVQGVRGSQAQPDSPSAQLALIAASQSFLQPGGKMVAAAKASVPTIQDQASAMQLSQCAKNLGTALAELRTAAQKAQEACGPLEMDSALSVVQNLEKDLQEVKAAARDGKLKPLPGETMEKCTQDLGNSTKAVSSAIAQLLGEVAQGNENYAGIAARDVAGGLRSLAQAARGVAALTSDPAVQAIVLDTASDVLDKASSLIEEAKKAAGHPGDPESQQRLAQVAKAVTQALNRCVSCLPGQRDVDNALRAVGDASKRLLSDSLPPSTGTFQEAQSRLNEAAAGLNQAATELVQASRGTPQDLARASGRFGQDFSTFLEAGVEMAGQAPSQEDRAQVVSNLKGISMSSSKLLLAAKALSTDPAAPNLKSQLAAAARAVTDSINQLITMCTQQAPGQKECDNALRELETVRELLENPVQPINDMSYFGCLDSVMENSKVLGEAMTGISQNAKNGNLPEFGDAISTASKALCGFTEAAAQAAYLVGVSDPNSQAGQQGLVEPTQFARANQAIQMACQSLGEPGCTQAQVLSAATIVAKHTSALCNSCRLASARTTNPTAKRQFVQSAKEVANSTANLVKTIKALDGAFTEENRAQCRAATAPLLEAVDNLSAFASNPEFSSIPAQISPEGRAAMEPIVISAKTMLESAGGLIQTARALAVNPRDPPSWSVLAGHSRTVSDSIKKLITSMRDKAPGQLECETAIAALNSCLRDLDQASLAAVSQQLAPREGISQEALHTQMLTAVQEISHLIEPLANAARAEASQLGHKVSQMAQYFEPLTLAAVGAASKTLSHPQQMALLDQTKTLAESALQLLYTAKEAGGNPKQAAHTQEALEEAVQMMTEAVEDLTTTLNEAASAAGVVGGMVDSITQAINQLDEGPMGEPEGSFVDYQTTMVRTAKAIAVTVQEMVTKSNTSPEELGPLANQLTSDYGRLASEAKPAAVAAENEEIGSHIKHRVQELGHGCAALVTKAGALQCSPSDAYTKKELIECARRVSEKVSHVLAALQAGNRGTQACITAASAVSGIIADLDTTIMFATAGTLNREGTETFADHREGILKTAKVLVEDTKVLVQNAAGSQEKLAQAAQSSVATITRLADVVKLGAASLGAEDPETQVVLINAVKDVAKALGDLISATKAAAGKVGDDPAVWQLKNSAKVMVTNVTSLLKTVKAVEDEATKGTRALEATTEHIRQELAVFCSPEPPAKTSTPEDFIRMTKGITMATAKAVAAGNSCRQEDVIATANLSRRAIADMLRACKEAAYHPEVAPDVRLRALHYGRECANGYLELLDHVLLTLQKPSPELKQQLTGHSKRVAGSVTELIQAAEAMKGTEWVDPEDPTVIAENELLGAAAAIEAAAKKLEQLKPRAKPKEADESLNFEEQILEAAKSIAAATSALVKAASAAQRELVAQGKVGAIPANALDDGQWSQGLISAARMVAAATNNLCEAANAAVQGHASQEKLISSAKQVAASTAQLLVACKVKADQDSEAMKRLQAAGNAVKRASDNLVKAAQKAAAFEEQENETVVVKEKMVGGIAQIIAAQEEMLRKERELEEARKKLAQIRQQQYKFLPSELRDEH

UniProt P68371, sequence (P68371 whole entry): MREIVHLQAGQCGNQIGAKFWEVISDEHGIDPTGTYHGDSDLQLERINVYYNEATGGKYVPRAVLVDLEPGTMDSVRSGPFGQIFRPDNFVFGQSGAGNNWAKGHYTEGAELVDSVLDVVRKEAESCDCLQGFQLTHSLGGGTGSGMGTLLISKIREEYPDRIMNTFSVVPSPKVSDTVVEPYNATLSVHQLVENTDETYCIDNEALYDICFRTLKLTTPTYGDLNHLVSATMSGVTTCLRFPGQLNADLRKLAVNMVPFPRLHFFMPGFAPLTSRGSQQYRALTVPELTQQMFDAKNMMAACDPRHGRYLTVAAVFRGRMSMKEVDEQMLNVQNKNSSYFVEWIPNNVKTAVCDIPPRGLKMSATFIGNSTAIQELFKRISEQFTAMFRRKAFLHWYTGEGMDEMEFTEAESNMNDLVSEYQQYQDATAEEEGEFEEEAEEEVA
UniProt P17066, sequence (P17066 whole entry): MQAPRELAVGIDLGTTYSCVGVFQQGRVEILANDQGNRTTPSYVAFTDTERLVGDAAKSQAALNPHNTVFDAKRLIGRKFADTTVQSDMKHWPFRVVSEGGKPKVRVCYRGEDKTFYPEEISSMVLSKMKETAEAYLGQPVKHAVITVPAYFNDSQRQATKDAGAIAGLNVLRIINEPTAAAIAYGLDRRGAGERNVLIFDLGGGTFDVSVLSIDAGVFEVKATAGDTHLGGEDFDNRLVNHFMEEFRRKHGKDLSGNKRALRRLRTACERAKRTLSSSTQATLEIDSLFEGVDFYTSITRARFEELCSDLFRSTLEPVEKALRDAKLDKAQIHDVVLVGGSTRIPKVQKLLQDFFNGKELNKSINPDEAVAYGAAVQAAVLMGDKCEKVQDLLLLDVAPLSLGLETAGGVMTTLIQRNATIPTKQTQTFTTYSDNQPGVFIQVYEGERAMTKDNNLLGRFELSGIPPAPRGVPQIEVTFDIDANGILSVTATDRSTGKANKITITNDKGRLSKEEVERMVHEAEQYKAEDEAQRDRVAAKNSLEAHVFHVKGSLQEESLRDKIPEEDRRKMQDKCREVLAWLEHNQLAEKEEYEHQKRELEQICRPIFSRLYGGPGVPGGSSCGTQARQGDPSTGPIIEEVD
UniProt P14866, sequence (P14866 whole entry): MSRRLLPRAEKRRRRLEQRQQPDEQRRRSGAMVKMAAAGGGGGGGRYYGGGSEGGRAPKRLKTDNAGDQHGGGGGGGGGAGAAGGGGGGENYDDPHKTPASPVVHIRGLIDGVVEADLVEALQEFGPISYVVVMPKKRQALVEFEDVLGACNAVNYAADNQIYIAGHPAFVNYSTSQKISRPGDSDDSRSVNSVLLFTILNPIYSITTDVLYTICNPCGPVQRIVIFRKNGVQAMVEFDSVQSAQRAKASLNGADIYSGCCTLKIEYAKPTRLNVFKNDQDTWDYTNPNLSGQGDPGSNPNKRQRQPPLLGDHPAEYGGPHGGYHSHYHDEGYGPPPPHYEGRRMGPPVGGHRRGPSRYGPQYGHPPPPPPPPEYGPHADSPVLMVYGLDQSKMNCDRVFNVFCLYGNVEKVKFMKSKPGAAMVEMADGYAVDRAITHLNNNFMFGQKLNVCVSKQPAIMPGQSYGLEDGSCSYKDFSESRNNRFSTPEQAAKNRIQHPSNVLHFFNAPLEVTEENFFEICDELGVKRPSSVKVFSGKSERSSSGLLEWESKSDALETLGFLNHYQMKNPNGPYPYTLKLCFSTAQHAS
UniProt Q9Y265, sequence (Q9Y265 whole entry): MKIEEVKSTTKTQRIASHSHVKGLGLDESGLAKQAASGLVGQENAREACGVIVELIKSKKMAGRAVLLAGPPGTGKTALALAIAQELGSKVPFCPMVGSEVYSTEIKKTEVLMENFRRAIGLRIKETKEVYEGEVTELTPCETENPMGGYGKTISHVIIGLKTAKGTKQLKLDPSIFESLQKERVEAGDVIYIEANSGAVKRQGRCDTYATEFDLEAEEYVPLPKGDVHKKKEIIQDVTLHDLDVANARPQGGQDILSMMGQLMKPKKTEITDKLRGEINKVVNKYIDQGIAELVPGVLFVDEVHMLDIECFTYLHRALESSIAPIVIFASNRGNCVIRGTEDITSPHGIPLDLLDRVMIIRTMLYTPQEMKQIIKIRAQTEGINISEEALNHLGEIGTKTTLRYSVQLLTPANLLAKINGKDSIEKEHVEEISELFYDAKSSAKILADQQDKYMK
UniProt P60900, sequence (P60900 whole entry): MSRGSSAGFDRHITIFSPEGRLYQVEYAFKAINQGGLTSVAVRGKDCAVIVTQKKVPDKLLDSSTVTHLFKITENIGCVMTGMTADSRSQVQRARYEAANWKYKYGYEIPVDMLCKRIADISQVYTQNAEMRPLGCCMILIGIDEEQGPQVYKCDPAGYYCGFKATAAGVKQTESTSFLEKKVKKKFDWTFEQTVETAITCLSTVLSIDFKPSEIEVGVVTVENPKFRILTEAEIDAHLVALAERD

CNC1CCN(C(=O)C[C@@H](Cc2ccccc2)C(=O)N[C@@H](CSC)C(=O)N[C@@H](CC2CCCCC2)[C@@H](O)C(=O)OC(C)C)CC1 [CP-108671, reference compound]
Median SILAC Ratio (Heavy/Light) [1]: 0.5395 | Median SILAC Ratio (Heavy/Light) [2]: 1.264 | Median SILAC Ratio (Heavy/Light) [3]: 1.07 | Median SILAC Ratio (Heavy/Light) [4]: 0.7965 | SILAC ratio (DMSO/CP-108671) ([5]; P17066 HSPA6 Heat shock 70 kDa protein 6): 0.70 | Median SILAC Ratio (Heavy/Light) [5]: 1.431 | Median SILAC Ratio (Heavy/Light) [6]: 1.123 | SILAC ratio (DMSO/CP-108671) ([7]; P27348 YWHAQ 14-3-3 protein theta): 0.50 | Median SILAC Ratio (Heavy/Light) ([7]; replicate R1): 2.0134 | SILAC ratio (DMSO/CP-108671) ([8]; P52272 HNRNPM Heterogeneous nuclear ribonucleoprotein M): 1.33 | Median SILAC Ratio (Heavy/Light) [8]: 0.7504 | Median SILAC Ratio (Heavy/Light) [9]: 1.922 | Median SILAC Ratio (Heavy/Light) [10]: 1.856 | Median SILAC Ratio (Heavy/Light) [11]: 2.162 | SILAC ratio (DMSO/CP-108671) ([12]; P68371 TUBB4B Tubulin beta-4B chain): 0.45 | Median SILAC Ratio (Heavy/Light) [12]: 2.229 and 1.333 | SILAC ratio (DMSO/CP-108671) ([13]; Q15084 PDIA6 Protein disulfide-isomerase A6): 0.93 | Median SILAC Ratio (Heavy/Light) [13]: 1.078 | Median SILAC Ratio (Heavy/Light) [14]: 1.491 | Median SILAC Ratio (Heavy/Light) [15]: 2.133

Cc1cc([C@H]2C[C@H]3[C@@H](C)SC(N)=N[C@@]3(c3ccc(F)cc3F)CO2)on1 [PF-9283]
Median SILAC Ratio (Heavy/Light) [1]: 0.9354 | Median SILAC Ratio (Heavy/Light) [2]: 1.529 | Median SILAC Ratio (Heavy/Light) [3]: 1.154 | Median SILAC Ratio (Heavy/Light) [4]: 0.801 and 0.9309 | Median SILAC Ratio (Heavy/Light) [5]: 1.448 | Median SILAC Ratio (Heavy/Light) [6]: 1.402 and 2.53 | Median SILAC Ratio (Heavy/Light) ([7]; replicate R3): 1.45 | Median SILAC Ratio (Heavy/Light) ([7]; replicate R4): 2.687 | Median SILAC Ratio (Heavy/Light) [8]: 0.9046 and 1.002 | Median SILAC Ratio (Heavy/Light) [9]: 2.229 | Median SILAC Ratio (Heavy/Light) [10]: 1.75 and 1.214 | Median SILAC Ratio (Heavy/Light) [11]: 1.999 | Median SILAC Ratio (Heavy/Light) [12]: 1.998 and 1.162 and 1.78 | Median SILAC Ratio (Heavy/Light) [13]: 1.274 and 1.02 | Median SILAC Ratio (Heavy/Light) [14]: 1.565 | Median SILAC Ratio (Heavy/Light) [15]: 1.751

Where “and” joins values, the source holds several entries; their conditions need not be identical. Equal values may be shown once. Read-outs that look alike come from different tables or passages of the source.
